Results taken from the supplement of paper PMC11417369.
The other results are listed elsewhere or left out.

tested on: PF3D7_0420300 AP2 domain 1 (GST-tagged); assay: gcPBM binding intensity (ln(normalized median fluorescence intensity)); higher = stronger DNA binding
Outline: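 Binding intensity is defined as the maximum Masliner-normalised natural-log median intensity across replicate spots for either probe orientation. It was measured on an Agilent 4 × 180k array of primer-extended double-stranded 36-bp intergenic genomic probes and negative controls, to which GST-tagged P. falciparum DNA-binding domains made in E. coli were applied for 1 h in 1× PBS with 1% milk, 0.2 mg/ml BSA, 0.5% salmon testes DNA and 0.03% Triton X-100. Detection was by Alexa488 anti-GST antibody and scanning at 488 nm.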

Row | Sequence | gcPBM binding intensity (ln)
1 | TTATTTTATTTTAAAAAAAACAATATAAATTCAAAG [GTGCAC_negctrl_site57] | 8.67
2 | ATTATACAAAATGGTAAGGAAAAGGAAATTTTTTTT [CACACA_negctrl_site1090] | 9.17
3 | CAATATTATATATATACACACATAATCTGTAAAAAC [CACACA_site1068] | 9.64
4 | CATATATATATATATACACACATATATATTTTCTTT [CACACA_site1457] | 9.46
5 | AAAAAAAAAAATATCACACACACATAAATATAAACA [CACACA_site7138] | 10.1
6 | AAAGTAGGCTTATATGCACACTTTGAAATATTATAA [CACACA_site5117] | 9.1
7 | TATAAAAATATATTTACACACTATATATATCGAAAG [CACACA_site1700] | 9.32
8 | ATGGTTTAGTTATATACACACTCGAAAATAACGACA [CACACA_site7520] | 9.37
9 | ATATATTTTCAAAAAAGTAAATCAAAATAAATATAT [TGCATGCA_negctrl_site319] | 9.09
10 | TCCAAATACAACTACACACAAACAAAAATTATATAT [CACACA_site881] | 9.81
11 | TTTTTTTTAAGAGATAGTACATAAATATTATAATAT [XGTACX_site4685] | 8.91
12 | AAAATTTTTCTTAAAGCATGCACAATTAAGAAGACG [TGCATGCA_site883] | 9.18
13 | TTAAAATTAATTCACCAGTATTAAAATAAAAACGAA [CACACA_negctrl_site1428] | 9.3
14 | AAATAAAATTTTATGTGTACGCAAAAAGTTGTAAGC [XGTACX_site8911] | 9.39
15 | TACAATCTAAAATACACACACACAAACATATATTTA [CACACA_site3702] | 10.2
16 | AATAAATAAATATATACACACATATATATATAATAT [CACACA_site921] | 9.6
17 | TGAAAAAATATAAAATATAAAATAAAAAATATAAAA [GTGCAC_negctrl_site536] | 9.23
18 | AAGATATATATAGAAAGTACTTATATTTGTATAATT [XGTACX_site8855] | 9.31
19 | ATATTAATATATATGTTTTATTACCATTTTATGTAT [CACACA_negctrl_site1761] | 9.44
20 | TCTACAATTATAATTACACACTATAAAAAAGAAAGA [CACACA_site2984] | 9.37
21 | AAAAATAGGAACCAATATCCAACGTGACTTTATAAT [CACACA_negctrl_site1011] | 9.55
22 | AAAATAATTATGAATTGTACAGGTTTTTTTTTTTTT [XGTACX_site220] | 9.19

Row | Sequence | gcPBM binding intensity (ln)
23 | GGAAAAAAAAAAAAAAAACACACGGTACATTCAAAC [CACACA_site2715] | 9.67
24 | AAAAAATTTTTAAGCACACACATAGATAATATATAT [CACACA_site1555] | 9.72
25 | ATGGTATCTTTTAGAAGTACATCATGATAATAATTT [XGTACX_site5544] | 9.06
26 | GATCATAATATTTAAAAGAATATATATAAAAAGGAA [XGTACX_negctrl_site310] | 9.24
27 | GTATTAATTTATATATGTACATATGTGATATATATA [XGTACX_site5825] | 9.2
28 | CAAAATTAATAAGTCACACACACATATATAATATAT [CACACA_site798] | 10.1
29 | TATAAAAATATATGCACACAAATAAAAAATTATATA [CACACA_site3629] | 9.44
30 | TATATTTATACAATATGTACATATTATATATATATA [XGTACX_site3098] | 9.03
31 | TGAATTGTAATTTATAATATACGTGGTTTCTACTTA [CACACA_negctrl_site559] | 9.15
32 | ATTTAATAACGGCATGCATGTCCTTATATAAATTTA [TGCATGCA_site1012] | 9.11
33 | TATTATATATTATATAGTACATATTTATGTAAGAGG [XGTACX_site3099] | 9.2
34 | CCTTACCAAATAATATGTACACATTTAATGTTATAT [XGTACX_site7840] | 9.29
35 | CACTTAAAAAAAATACGTACACATATATATATATAT [XGTACX_site2054] | 9.21
36 | TATCAGTATACAACAACACACATAATGTTTGTCATC [CACACA_site2980] | 9.71
37 | CAAAAATAAATATAAACACACAATAAATAAATAAAT [CACACA_site891] | 9.91
38 | TTTATATGCAATTAAGTGCATAAGAAAAAAAAAGGA [GTGCAC_site9966] | 9.05
39 | CAAACAAATTGTGAAACACACATATTTATATTTATA [CACACA_site7030] | 9.13
40 | TTATAAAATAAACTTACACACATGAAATATTATAGT [CACACA_site7000] | 9.75
41 | TCATAGCACAAAAAATGTACTTATTATTTAATATTT [XGTACX_site5687] | 9.15
42 | ATGTGATAATTTAATAGTACATAACAGTTTAACAAT [XGTACX_site5854] | 9.68
43 | TTTGTTTTATGTGGTTGTACACAAATACAATTTAAA [XGTACX_site5156] | 8.98
44 | TATATTATATATTTATGTACGTATTTGTAAAAAGAT [XGTACX_site3444] | 9.18

Row | Sequence | gcPBM binding intensity (ln)
45 | TTATAATAAATATTTATTATATATAATATATATTAC [CACACA_negctrl_site1802] | 8.99
46 | TTTTTTATTAAATATATATAATAATAATAATTTGTA [CACACA_negctrl_site1719] | 8.78
47 | GTTTCCTTAATATTCACACACATATCTATAATATAT [CACACA_site6959] | 9.87
48 | ATAATAATTATATCAGTGCGCATATATATTTATTTA | 9.28
49 | GTTGTGTAATTCGTAACACACATAAAATATATATAA [CACACA_site6059] | 9.22
50 | ATATAGTTCGATATAGTTAGTATGAATTGAAAAATA [CACACA_negctrl_site1826] | 9.09
51 | TTTTTAAAATATTTAACACACAATTTTAATGCATAA [CACACA_site6036] | 9.02
52 | AAAAAAATAAAACACACACACAAAAAAATAAAAATA [CACACA_site465] | 10.2
53 | AAAAACAATCATTTTAAATAAAAATCTCTAATTTAA [GTGCAC_negctrl_site138] | 8.85
54 | ATTTGTTCATTTGGTTGTACATAATTTATTTTTATA [XGTACX_site785] | 9.67
55 | ATTTCTTTAATATACACACACCAAAACAAAAAAAAA [CACACA_site6416] | 9.84
56 | TTTTCATTTTTTTTTTTTTTTTTTTTTCTTTTTTTT [CACACA_negctrl_site1312] | 9.22
57 | AAAAAAAAAACAAATGCATGTAATATAAGAATTACA [TGCATGCA_site908] | 9.27
58 | ACTTATAATATTTAGTGTACATATTGTGACTAATAC [XGTACX_site1508] | 9.36
59 | TATTTATAAATTTACACACACACATGTGAACATAAA [CACACA_site1909] | 9.89
60 | ATTTTAAAAAATTAATGTACTTAATTAATACTGAAA [XGTACX_site7702] | 8.78
61 | TATCAAAAAAAAAGTAGTACGATAATAGTTTCCCAA [XGTACX_site1812] | 9.33
62 | GAAATTAAATGACATACACACTATATTATATATTTT [CACACA_site5693] | 9.5
63 | TAGATAGATTAAAATACATGCATATTATTAAAAAAT [TGCATGCA_site739] | 9.18
64 | CACCCATACACATACAAACACACATTCTATATATAT [CACACA_site1600] | 9.77
65 | CATACATACATACATACACACATACATATGTATATA [CACACA_site7216] | 9.56
66 | AGCATAAAAATGATATGTACATATATATATATATAT [XGTACX_site2836] | 9.14

Row | Sequence | gcPBM binding intensity (ln)
67 | TATCTTCAATGTGAAAGTACTTAAATTGTTATAAAA [XGTACX_site2586] | 8.89
68 | AATCATAAACATTATGCACACAAAAATAAAAAAAAA [CACACA_site8289] | 9.63
69 | ATTTAATGTATTTTGCGTACGAATTATTTTATTTCA [XGTACX_site7331] | 9.44
70 | TGGAATAAAAAAAGGAGTACAATTAATTATTCTTAA [XGTACX_site8299] | 9.24
71 | TATATATATATATATGTGCACATATTTATATGTTTT | 9.16
72 | ATCATTTTTATGTACACACACATATACGTTGAATAT [CACACA_site1865] | 9.89
73 | ACATCATAAAATTTATGTACACATTTTTAATTATAC [XGTACX_site7759] | 9.23
74 | AAGGTATACACTGCTTTATCAAGTTTAACTCTTTTT [XGTACX_negctrl_site118] | 9.26
75 | TATAAAATTTACGTGTGTACATATTTAATAATTTTT [XGTACX_site5001] | 9.4
76 | AAGATATGAGGGAATACACACATATTTATATTTATA [CACACA_site6846] | 9.51
77 | TAAATATAGAAACACACACACATTAATACATATATT [CACACA_site3489] | 10
78 | AAATTTGAAATGCATGAACACACACCGCTATAAATG [CACACA_site8230] | 9.68
79 | TAATTTTTTATATATTGTACAAATAATATATGATGT [XGTACX_site268] | 9.19
80 | TTTATGTATTTAATATGTACATATAGTTGTTAATAA [XGTACX_site1938] | 9.21
81 | AAAATGTACGCATATACACACACATAAATAGATACG [CACACA_site9124] | 9.96
82 | GCTATATATTAATGTTGTACTTTATGTTCATATTGT [XGTACX_site3619] | 9.59
83 | AAGAAATAAATACATACACACATATATAAATAAATA [CACACA_site7559] | 9.89
84 | AAGAAATAATTATTATGTACTTAAAAAAATTAAAAT [XGTACX_site7423] | 9.16
85 | ATATATATATAATTATATAAAATATATCATATGTTA [XGTACX_negctrl_site47] | 9.15
86 | CTTTCCATATATGATAGTACACGATAAAAAAAAAAA [XGTACX_site5772] | 9.02
87 | AAAGAAATAAGGTGCACACATATACATATATATATA [CACACA_site429] | 9.61
88 | TTTAAAAAAAATTCATATTATATATATATATATTAT [CACACA_negctrl_site1733] | 8.88
